Data reported in ChEMBL document CHEMBL1157539, “Thousands of chemical starting points for antimalarial lead identification” (Nature, 2010).
Over roughly 13,000 compounds, “IFI” has its median near 4; the highest 2% begin near 17. Some of the results follow.

Assay: GSK_TCMDC: Inhibition Frequency Index (IFI). The number of non-kinase HTS assays where a compound showed > 50 % inhibition, expressed as a percentage of the number of such assays in which the compound was tested (-0 is zero)
Format: functional

In order of rising IFI:
1. CN(C)C(=O)C(CC(=O)NCc1ccccc1Cl)N(C)C.CN(C)C(=O)CC(C(=O)NCc1ccccc1Cl)N(C)C (configuration not stated)  -0%
2. CCCCC#Cc1cnc2nc(N)[nH]c(=O)c2n1  -0%
3. Cc1nn(-c2cccc(Cl)c2)c2c1C(C(=O)c1ccc3c(c1)OCO3)CC(=O)N2 (configuration not stated)  -0%
4. NCC(=O)NC12CC3CC(CC(C3)C1)C2  -0%
5. COc1cc(F)c2ncc(Cl)c([C@@H](O)CN3CCC(NCc4cc5c(cn4)OCCO5)CC3)c2c1  0%
6. CC(=O)Nc1[nH]c(-c2ccccc2)nc1C(N)=O  0%
7. COc1cccc(C=CC(=O)N(CCN)Cc2ccccc2)c1  0%
8. O=C(Nc1ccc2c(c1)OCO2)c1cc(-c2cccnc2)nc2ccc(Cl)cc12  0%
9. CCN(CCNC(=O)C1CCN(c2cc(-c3cccc(C)c3)ncn2)CC1)Cc1ccccc1  0%
10. Cc1cc(N(C)CCCN(C)C)nc(Nc2ccc(Br)cc2)n1  -0%
11. CC(=O)N[C@@H]1c2cc(C(C)=O)ccc2OC(C)(C)[C@@H]1O  -0%
12. O=[N+]([O-])c1ccc2c(-c3ccccc3)c(-c3ccccc3)n(O)c2c1  0.85%
13. Cc1ccc2nc3c(cc(C(=O)NCc4ccccc4)c(=N)n3CCCn3ccnc3)c(=O)n2c1  0.88%
14. Cc1ccc(-c2nn3c(O)c4c(nc3c2C)CCCC4)cc1  0.88%
15. Cc1[nH]c(C)c(-c2ccc(Oc3ccc(O)cc3)cc2)c(=O)c1Cl  0.92%
16. O=c1ccc(CNc2nc(NCCc3ccccc3)nc3cc(Cl)ccc23)c[nH]1  0.94%
17. c1cc2[nH]c(CCCCc3nc4cc(C5=N[C@H]6CCCC[C@H]6N5)ccc4[nH]3)nc2cc1C1=N[C@H]2CCCC[C@H]2N1  1.36%
18. CCCC(C)NC(=O)[C@H](CC1CCCCC1)NC(=O)c1ccc(O)c(-c2ccc(OC)cc2)c1 (some centres not stated)  1.4%
19. O=C(Nc1ccc(-c2nc3ccccc3[nH]2)cc1)c1ccc(S(=O)(=O)N2CCCCCC2)cc1  1.46%
20. CC1CNC(c2ccc(NC(=O)c3ccc(C(=O)Nc4ccc(C5=NC(C)CN5)cc4)cc3)cc2)=N1 (configuration not stated)  1.47%
21. CC(C)CCN1CCCN(Cc2ccc(C(=O)NCc3ccc(Cl)cc3)cc2)CC1  1.6%
22. O=C(/C=C/c1ccc2ccccc2c1)NCC1(c2ccc(-c3ccccc3)cc2)CCOCC1  1.64%
23. CCn1c(SC)nnc1C1CCCN(CC(=O)Nc2nc3ccc(OC)cc3s2)C1 (configuration not stated)  1.79%
24. COc1ccc(CNC2CCN(C)CC2)cc1-c1ccc(S(=O)(=O)NCCc2ccccn2)s1  1.89%
25. O=C(Nc1ccc(S(=O)(=O)NCCCN2CCOCC2)cc1)c1cc(-c2ccccc2)[nH]n1  1.96%
26. OCC1CCN(Cc2cccc(-c3ccc(-c4nc5cc(C(F)(F)F)ccc5[nH]4)s3)c2)CC1  2%
27. O=C(Nc1cccc(CN2CCCN(Cc3cccnc3)CC2)c1)c1ccc(Cl)c(Cl)c1  2.03%
28. CC(C)(CN)c1nc(-c2ccc(Cl)c(O)c2)c(-c2ccnc(N)n2)[nH]1  2.05%
29. CCc1c[nH]c2c(N3CCCS3(=O)=O)cc(C(=O)N[C@@H](Cc3ccccc3)[C@H](O)CNC3CCCCC3)cc12  2.08%
30. CC(C)C[C@@H](C(=O)Nc1ccc(Cc2ccc(NC(=O)[C@H](CC(C)C)N(C)C(=O)OC(C)(C)C)cc2)cc1)N(C)C(=O)OC(C)(C)C  2.13%
31. CCCC(C)N(Cc1ccc(C(C)(C)C)cc1)C(=O)c1cccc(C#N)c1 (configuration not stated)  2.21%
32. Cc1nc(C)c(-c2ccc(C(=O)c3ccc(Cl)cc3)cc2)c(O)c1Cl  2.21%
33. CCCC(C)Nc1nc(C)cc(NCCC(=O)Nc2ccc(OC)cc2)n1 (configuration not stated)  2.27%
34. CN1CCN(Cc2c(O)ccc3c(=O)c(Oc4ccc(C(C)(C)C)cc4)c(C(F)(F)F)oc23)CC1  2.42%
35. CCCCc1cc(Cc2cnc(N)nc2N)cc(OC)c1OC  2.67%
36. Cc1ccc(NC(=O)NC2CCN(CCC(NC(=O)Cc3ccccc3)c3ccc(Cl)c(Cl)c3)CC2)cc1 (configuration not stated)  2.8%
37. COc1ccc(N2CCN(c3nc(Nc4ccc(NC(C)=O)cc4)nc(N4CCCC4)n3)CC2)cc1  2.84%
38. COc1ccc2nccc([C@@H](O)CN3CCC(NCc4cc5ccccc5[nH]4)CC3)c2n1  2.88%
39. CCOC(=O)C1CCN(CCOc2cc(NC(=O)/C=C/c3ccccc3Cl)ccc2Br)CC1  2.96%
40. Cc1cc(-c2ccc(O)c(CNC3CCCCC3)c2)cnc1N  3.33%
41. CC(C)c1ccc(NC(=O)c2cccc(CN3CCCN(Cc4cccc(O)c4)CC3)c2)cc1  3.6%
42. O=C(Nc1cccc(-c2cccc(-c3nc4cc(F)ccc4[nH]3)c2)c1)c1c[nH]cn1  3.74%
43. COc1ccc2nccc([C@@H](O)CN3CCC(NCc4cc5ccc(C#N)cc5[nH]4)CC3)c2c1  3.76%
44. Cn1cnc(CCNC(=O)c2ccc(-c3cccc(-c4nc5cc(F)ccc5[nH]4)c3)cc2)c1  3.81%
45. CS(=O)(=O)c1cccc2sc(N3CCN(C(=O)c4ccc([N+](=O)[O-])o4)CC3)nc12  4%
46. CS(=O)(=O)CCNCc1ccc(-c2cc3c(Nc4ccc(OCc5cccc(F)c5)c(Cl)c4)ncnc3s2)[nH]1  4.29%
47. O=C(c1ccc(-c2ccc(-c3nc4ccccc4[nH]3)s2)cc1)N1CCCCC1CN1CCC(O)C1 (configuration not stated)  4.42%
48. N#Cc1cccc(C(=O)Nc2cccc(-c3ccc(C(=O)NCCCN4CCOCC4)cc3)c2)c1  4.55%
49. Cc1cccc2nc(-c3ccc(-c4cccc(CNC5CCN(C)CC5)c4)s3)[nH]c12  4.76%
50. CCNc1cc(C(=O)N[C@@H](Cc2ccccc2)[C@H](O)CNC(C)Cc2cccc(Cl)c2)cc(N2CCCCS2(=O)=O)c1 (some centres not stated)  4.9%
51. CCCc1ccc(NC(=O)c2cccc(CN3CCCN(Cc4cccc(O)c4)CC3)c2)cc1  4.9%
52. O=C(c1ccc([N+](=O)[O-])o1)N1CCC(c2cn(Cc3cccc(F)c3)c3ccccc23)CC1  5%
53. SC(=Nc1ccc2c(c1)OCCO2)NN=Cc1ccccn1  5%
54. O=C(Nc1cccc(C(F)(F)F)c1)c1ccc(S(=O)(=O)NCC2CCCN(CC3CCCCC3)C2)cc1 (configuration not stated)  5.1%
55. COc1ccc(Oc2ccc(Nc3ccnc4ccc(C(F)(F)F)cc34)cc2)cc1OC  5.11%
56. O=C(NC1CCCC1)c1ccc(N2CCC(NCc3cccc(C(F)(F)F)c3)CC2)cc1  5.26%
57. Cc1c(-c2cccc(CNCCc3ccc(Cl)cc3)c2)cnc(N)c1C  5.43%
58. CC(=O)Nc1cccc(C(=O)Nc2ccc(-c3cccc(-c4nc5cccc(C)c5[nH]4)c3)cc2)c1  5.45%
59. CCc1nn2c(Nc3ccncc3)cc(C)nc2c1-c1ccccc1  5.66%
60. COc1ccc(CN(C)Cc2cc(C(C)C)c(C)cc2O)cc1F  5.88%
61. O=[N+]([O-])c1ccc2nc(Nc3cccc(C(F)(F)F)c3)c(Nc3cccc(C(F)(F)F)c3)nc2c1  5.88%
62. CC(=O)Nc1nc(C(=O)Nc2ccc(-c3cccc(-c4nc5cc(C(F)(F)F)ccc5[nH]4)c3)cc2)cs1  6.03%
63. O=C(Nc1ccc(Oc2ccccc2)cc1)N(Cc1ccc(-c2ccc(CN3CCNCC3)cc2)cc1)C1CCN(Cc2ccccc2)CC1  6.34%
64. NC1=NC(c2ccccc2)(c2ccccc2)C(=O)N1Cc1ccc(-c2cccnc2)cc1  6.48%
65. CCN1CCN(c2cc(C)c3cc(NC(=O)C=Cc4cccc(OC)c4OC)ccc3n2)CC1  6.8%
66. Fc1ccc2[nH]c(-c3ccc(-c4ccc(CN5CCN(CCN6CCOCC6)CC5)cc4)s3)nc2c1  7.04%
67. O=C(Cn1c(SCc2cccc(F)c2F)cc(=O)c2ccccc21)N(CCN1CCCCC1)Cc1ccc(-c2ccc(C(F)(F)F)cc2)cc1  7.19%
68. CCc1cc2c3c(N)nc(N)nc3ccc2n1C(C)(C)C  7.26%
69. N#Cc1cccc(C(=O)Nc2cccc(-c3ccc(C(=O)Nc4cccnc4)cc3)c2)c1  7.46%
70. O=C(/C=C/c1ccc(Cl)c(Cl)c1)NCCCCCN1CCC(c2c[nH]c3c(-c4ccccc4)cccc23)CC1  8.09%
71. COc1cc(Nc2nccc(NCC(O)c3ccc(C(F)(F)F)cc3)n2)cc(OC)c1OC (configuration not stated)  8.33%
72. COc1ccc(-c2csc(N(CCCN(C)C)C(=O)c3cc4c(C)nn(-c5ccccc5)c4s3)n2)cc1  8.39%
73. O=C(NCc1ccc(F)cc1)Nc1ccc(-c2cccc(-c3nc4cc(F)ccc4[nH]3)c2)cc1  8.62%
74. CC(C)(C(=O)NCCC1CCN(CCCCCNC(=O)/C=C/c2ccc(Cl)c(Cl)c2)CC1)c1ccc(Cl)cc1  8.97%
75. CN(C)CCN1CCN(Cc2ccc(-c3cccc(-c4nc5ccccc5[nH]4)c3)cc2)CC1  9.33%
76. CC(C)c1ccc(S(=O)(=O)Nc2cccc(CCN3CCC(N4CCCCC4)CC3)c2)cc1  9.52%
77. Cc1ccc(Nc2nc(C)cc(NCc3ccc(-n4ccnc4)cc3)n2)cc1  10.6%
78. Cc1cc(N(CCCN(C)C)Cc2cc(F)cc(F)c2)nc(Nc2ccc(Cl)cc2)n1  10.6%
79. Cc1c(CNCCCNc2cc(=O)c3ccccc3[nH]2)sc(C(F)=C(F)F)c1Br  10.9%
80. COc1cc2ccccc2c(OC)c1CNCCCCCCNCc1c(OC)cc2ccccc2c1OC  12.9%
81. O=C(C=Cc1ccc(Cl)c(Cl)c1)NCCCCCN1CCC(CCCNS(=O)(=O)c2ccc(Br)cc2)CC1  12.9%
82. Cc1cc(N2CCCC2)nc(Nc2ccc(NC(=O)c3ccccc3)cc2)n1  13.5%
83. CCCCN(CCCC)/C(=N/C(=N)Nc1ccc(Cl)cc1)NCCCCCCN/C(=N\C(=N)Nc1ccc(Cl)cc1)N(CCCC)CCCC  13.6%
84. CO/C(=C\C=C\c1cc2cc(Cl)c(Cl)cc2[nH]1)C(=O)NCCCNC12CC3CC(CC(C3)C1)C2  21.1%
85. Cc1cccc(N2CCN(C3CCC(NC(=O)c4cc5ccccc5[nH]4)CC3)CC2)c1C (configuration not stated)  22.9%
86. CC(C)(C(=O)Nc1ccc(C2CCC(NCC3CC3)CC2)c(Cl)c1)c1ccc(C(F)(F)F)cc1 (configuration not stated)  25%
87. C=CC(C)C1OC(=O)c2cc(OC)cc(OC)c21 (configuration not stated)  27%
